Experimental data from PubChem BioAssay AID1347120 (National Center for Advancing Translational Sciences (NCATS), 2019).
Among all 390,000 compounds or so, about 930 (0.24%) were called active. The shares of active, inactive and inconclusive entries below differ from those in the screen. Calls follow the shape of the dose curve; as a rule, active = well fitted activation curve with a large enough effect; inconclusive = small, poorly fitted or top-dose-only effect; inactive = no such curve, though single readings can be large or run the other way. Where the call is inconclusive, the potency comes from a doubtful curve fit.

Test: qHTS for Suppressors of FUS Proteinopathy: Primary screen using FUS-linked yeast assay; also: nearly all actives have a fitted effect of over 55% in size;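 as to growth rescue (activation): plate controls were DMSO vehicle for no effect and reference control for full effect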
Details: S. cerevisiae FUS-expressing, OD600, 24 h; Potency: growth rescue; growth rescue (activation): at 76.6 µM (top of the series)
How it was run: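 Absorbance at 600 nm, taken 24hr after compound addition, measured rescue of FUS-yeast growth at 30C. Induction used 2% galactose with seeding at OD 0.005. Controls: CP55940 from 92uM final, DMSO only.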
Potency is read from the fitted curve at half-maximal effect; tags tell the direction and shape of the fitted curve.

Row | Compound | growth rescue (activation) | Potency
1 | CCNc1oc(-c2ccc(COc3ccc(Cl)cc3)o2)nc1C#N | inactive: -4.41% | 
2 | CN=C(Nc1cc(Cl)ccc1Cl)SC1CC(=O)N(c2ccc(C(=O)OC)cc2)C1=O (stereo not drawn) |  | inconclusive: 39.8 µM [activator, single point]
3 | NC(=O)c1ccccc1NC(=O)Cn1nc(Cc2cccnc2)c2ccccc2c1=O | inactive: 5.55% | 
4 | CCOc1ccc(CNC(=O)c2sc3ncnc(N(C)C4CCCCC4)c3c2C)cc1 |  | inconclusive: 25.1 µM [activator, single point]
5 | C[C@]12c3[nH]c4cc(-c5ccco5)ccc4c3CCN1C(=O)[C@@H](CC(=O)NCC13CC4CC(CC(C4)C1)C3)C[C@@H]2C(=O)N1CCOCC1 |  | inconclusive: 50.1 µM [activator, single point]
6 | CCOC(=O)c1c(C)[nH]c(C)c1S(=O)(=O)N(C)CC(=O)Nc1cc(C)ccc1OC |  | inconclusive: 12.6 µM [activator, partial curve]
7 | CCOC(=O)N1CCN(C(=O)C[C@@H]2C(=O)N(Cc3ccc(OC)cc3)C3=CCN(C(=O)OC(C)(C)C)C[C@]32C(=O)OCC)CC1 |  | inconclusive: 7.94 µM [activator, partial curve, poor fit]
8 | CNC(=O)CSc1nnc(-c2ccco2)n1-c1cccc(OC)c1 | inactive: -15.2% | 
9 | COc1cccc(N2CCN(Cc3nc4scc(-c5ccccc5)c4c(=O)[nH]3)CC2)c1 |  | inconclusive: 20 µM [activator, partial curve]
10 | COc1ccc(Br)cc1S(=O)(=O)NCCc1cccs1 | inactive: 1.19% | 
11 | O=c1[nH]c(Cc2ccccn2)nc2scc(-c3ccc(Cl)cc3)c12 |  | inconclusive: 56.2 µM [activator, partial curve, poor fit]
12 | COCc1cc(C)nc2sc3c(c12)NC(c1ccc(O)cc1)N(c1ccc(C)cc1)C3=O (stereo not drawn) |  | inconclusive: 28.2 µM [activator, single point]
13 | COCCCn1c(SCc2nnc(-c3ccc(OC)c(OC)c3)o2)nc2ccccc2c1=O |  | inconclusive: 17.8 µM [activator, single point]
14 | CCN(C(=O)c1cn(-c2ccc(OC)cc2)c(=O)c2ccccc12)c1cccc(Cl)c1 |  | inconclusive: 15.8 µM [activator, single point]
15 | COc1ccc(NC(=O)c2ccc(-c3ccc(C(C)=O)cc3)o2)cn1 |  | inconclusive: 2.82 µM [activator, full curve, poor fit]
16 | C=CC[C@@H](CC(=O)NCCO)C(=O)N[C@H](COC(=O)[C@@H](CC=C)Cc1ccc(F)cc1)Cc1c[nH]c2ccccc12 |  | inconclusive: 20 µM [activator, single point]
17 | CCOc1cc(C(=S)N2CCOCC2)ccc1OC(=O)c1ccc(C)cc1 |  | inconclusive: 25.1 µM [activator, single point]
18 | COc1ccccc1Cn1c(C)c(C(=O)NCc2ccc3c(c2)OCCO3)sc1=O |  | inconclusive: 50.1 µM [activator, single point]
19 | C[C@H]1COC(=O)[C@H](CC(=O)OC(C)(C)C)C/C=C\C[C@@H](CC(=O)N[C@@H](CO)Cc2ccccc2)C(=O)N1 |  | inconclusive: 20 µM [activator, partial curve, poor fit]
20 | CCOC(=O)c1sc(=NC(=O)c2cc(OC)c(OC)c(OC)c2)n(C)c1C |  | inconclusive: 11.2 µM [activator, single point]
21 | COc1ccc([C@H]2CC(=O)C=C(c3ccc4ccn(C)c4c3)C2)cc1 | inactive: 7.45% | 

Row | Compound | growth rescue (activation) | Potency
22 | COc1ccc([N+](=O)[O-])cc1NCc1cccnc1 | inactive: -3.97% | 
23 | COc1ccc(CN(C)S(=O)(=O)c2nnc(NC(=O)c3cccc(C)c3)s2)cc1OC |  | inconclusive: 10 µM [activator, partial curve, poor fit]
24 | COc1ccc(C2/C=C\CN(C(=O)C3CC3)[C@H](Cc3ccccc3)C(=O)N2Cc2ccc(F)cc2)cc1 (stereo partly drawn) |  | inconclusive: 50.1 µM [activator, single point]
25 | CCc1ccc2oc(C(=O)Nc3cc(Cl)ccc3OC)cc(=O)c2c1 | inactive: -5.92% | 
26 | O=C(c1ccccc1)N1N=C(c2cccs2)CC1c1ccccc1O (stereo not drawn) |  | inconclusive: 1.78 µM [activator, full curve, poor fit]
27 | Cc1nc2ccc(C(=O)N3CCN(c4ccccc4)CC3)cn2c1N(C)C(=O)CCc1ccccc1 | inactive: 14.8% | 
28 | CCC(Sc1nc2ccsc2c(=O)n1Cc1ccc(C(=O)O)cc1)C(=O)Nc1ccc(Cl)cc1 (stereo not drawn) |  | active: 35.5 µM
29 | O=C(NCC(c1ccc2c(c1)OCO2)N1CCN(c2ccccc2)CC1)C(=O)Nc1ccccc1 (stereo not drawn) | inactive: -18.8% | 
30 | CC1=Nc2cc(C(=O)O)ccc2Sc2ccc(C)cc21 | inactive: 18% | 
31 | COCCn1c(C)cc(C(=O)CSc2nc3ccccc3o2)c1C |  | inconclusive: 50.1 µM [activator, single point]
32 | CCCCCCC(=O)NC1CCCCN(Cc2ccc(Cl)cc2)C1=O (stereo not drawn) |  | inconclusive: 28.2 µM [activator, single point]
33 | CCc1ccccc1CNC(=O)C1CCC(CNS(=O)(=O)c2cccc3cccnc23)CC1 (stereo not drawn) |  | inconclusive: 35.5 µM [activator, single point]
34 | CCOC(=O)CC(=O)CSc1nc2c(cc1C#N)CCCCCC2 |  | active: 11.2 µM
35 | COc1ccccc1C(=O)Nc1cccc(OCc2cc(=O)n3c4c(sc3n2)CCCC4)c1 | inactive: -11.3% | 
36 | Cc1ccc(N2CSC3=C(C#N)C(c4cccs4)CC(=O)N3C2)cc1 (stereo not drawn) |  | inconclusive: 44.7 µM [activator, single point]
37 | CCN(C(=O)CSc1nc(-c2ccccc2)no1)c1cccc(C)c1 | inactive: 13.5% | 
38 | COc1cccc(C2CC(=O)Nc3c2c(=O)[nH]c2ncnn32)c1OC (stereo not drawn) | inactive: -23.9% | 
39 | O=C(Nc1cccc(Oc2ccccc2)c1)C1Cc2c(-c3ccc4c(c3)OCO4)ccnc2O1 (stereo not drawn) |  | inconclusive: 11.2 µM [activator, partial curve]
40 | COc1ccccc1N1CCN(S(=O)(=O)c2cc(-c3cc(C)no3)ccc2C(C)C)CC1 | inactive: 14.4% | 
41 | Cc1nonc1C1CCCN1C(=O)c1cc(COc2ccc(F)cc2Cl)on1 (stereo not drawn) |  | inconclusive: 31.6 µM [activator, single point]
42 | Cc1cccc(N=C2NN=C(c3ccc4c(c3)OCCO4)CS2)c1 |  | inconclusive: 39.8 µM [activator, partial curve, poor fit]

Row | Compound | growth rescue (activation) | Potency
43 | CN1/C(=C/C(=S)NC(=O)C2CCC2)C(C)(C)c2ccccc21 | inactive: 23.8% | 
44 | COc1ccccc1N(C)S(=O)(=O)c1ccc(Cl)c(C(=O)NCC2(N(C)C)CCCCC2)c1 | inactive: 16.7% | 
45 | COc1ccccc1NC(=S)N(Cc1ccco1)Cc1cc2cc(C)ccc2[nH]c1=O | inactive: 46.2% | 
46 | Cc1c(C(=O)NCc2ccc(Cl)c(Cl)c2)sc(=O)n1Cc1ccc(S(=O)(=O)N(C)C)cc1 |  | inconclusive: 35.5 µM [activator, partial curve, poor fit]
47 | S=C(Nc1ccccc1)N1CCc2ccccc21 | inactive: -1.7% | 
48 | O=C(NCC1CC1)c1cc2c(c(-c3cccc(-c4ccccc4F)c3)n1)[C@@H](CCO)N(C(=O)CC1CC1)C2 |  | inconclusive: 15.8 µM [activator, partial curve, poor fit]
49 | COc1ccc(Cl)cc1Cn1c(C)c(C(=O)NCc2ccc(F)cc2)sc1=O |  | inconclusive: 31.6 µM [activator, single point]
50 | CC(C)C1C(=O)N(Cc2cn(CCC3OCCCO3)nn2)CCS(=O)(=O)N1Cc1ccc(-c2ccc(Cl)nc2)cc1 (stereo not drawn) |  | inconclusive: 28.2 µM [activator, single point]
51 | CCn1c(C)cc(/C=C2\NC(=O)N(Cc3ccc(Cl)cc3)C2=O)c1C |  | inconclusive: 20 µM [activator, partial curve, poor fit]
52 | CC[C@@]1(c2cccc(C)c2)C(=O)N(C(=O)OC)N1C(=O)OC | inactive: -27.3% | 
53 | COC(=O)c1sc(NC(=O)CSc2nnnn2-c2cccc(OC)c2)nc1C |  | inconclusive: 35.5 µM [activator, partial curve, poor fit]
54 | CN1CCN(CCCNC(=O)c2ccc(/C=C3\Oc4ccccc4N(Cc4ccc(Cl)cc4)C3=O)cc2)CC1 |  | inconclusive: 50.1 µM [activator, single point]
55 | CCCCOc1ccc(C(=O)NCCS(=O)(=O)N2CCN(c3ccccc3OC)CC2)cc1 |  | inconclusive: 10 µM [activator, partial curve]
56 | CCOc1cccc(/C=N\NC(=O)c2cnccn2)c1O | inactive: -18.7% | 
57 | CCN(C(=O)CSc1nc2ccccc2nc1Cc1cccc(OC)c1)c1cccc(C)c1 | inactive: 29% | 
58 | CCn1c(=O)[nH]n(C/C(C)=C\c2c[n+](Cc3ccc4c(c3)OCO4)c(N)[nH]2)c1=O | inactive: 0.0765% | 
59 | O=C(CSc1nc2ccccc2[nH]1)c1cccs1 |  | inconclusive: 20 µM [activator, partial curve, poor fit]
60 | CCOC(=O)C1CCCN(C(=O)c2ccc(C)c(NC(=O)c3nsc4ccccc34)c2)C1 (stereo not drawn) |  | inconclusive: 35.5 µM [activator, single point]
61 | COc1ccc(-c2cc(C(=O)N3CCN(c4cccc(C)c4C)CC3)c3ccccc3n2)cc1OC |  | inconclusive: 11.2 µM [activator, partial curve, poor fit]
62 | COC(=O)[C@]12C[C@H](CC(=O)NCCc3ccccc3OC)C(=O)N(CCc3ccc(OC)c(OC)c3)C1=C[C@H](C(C)C)O[C@@H]2C1CC1 |  | inconclusive: 22.4 µM [activator, partial curve, poor fit]
63 | CCN1C(=O)[C@@H]2[C@@H](c3ccc(-c4ccc(C(C)=O)cc4)cc3)N3CCC[C@@]3(C(=O)OC)[C@@H]2C1=O |  | inconclusive: 35.5 µM [activator, single point]
